Data: PubChem BioAssay AID1159614 (National Center for Advancing Translational Sciences (NCATS), 2016)
The campaign covered roughly 45,000 compounds. About 65 (0.1%) were called active. The call rests on the fitted dose curve; in most records, active means well fitted activation curve with a large enough effect; inconclusive means small, poorly fitted or top-dose-only effect; inactive means no such curve, though single readings can be large or run the other way. This is one part of the list.

biological target: Galactocerebrosidase (Homo sapiens) (UniProt P54803); assay: A Novel Cell-Based Assay to Identify Small Molecules for B -Galactocerebrosidase; settings: 145M-Twi-hGALC-G270D cells (Twitcher mouse brain line with human GALC G270D), HMU-beta-Gal fluorescence, 48 h; series mostly up to 57.5 µM; activation: at the top concentration; further: 0% is about no effect; nearly all actives have a fitted effect of over 65% in size
How it was run: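 Mutant human GALC (G270D), stably expressed in a Twitcher mouse brain cell line lacking endogenous GALC, is measured in live-treated cells via 6-hexadecanoylamino-4-methylumbelliferyl-β-galactoside hydrolysis (0.1 mM final, pH 5.2) with fluorescent detection.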

Sequence of UniProt P54803 (P54803 whole entry, looked up): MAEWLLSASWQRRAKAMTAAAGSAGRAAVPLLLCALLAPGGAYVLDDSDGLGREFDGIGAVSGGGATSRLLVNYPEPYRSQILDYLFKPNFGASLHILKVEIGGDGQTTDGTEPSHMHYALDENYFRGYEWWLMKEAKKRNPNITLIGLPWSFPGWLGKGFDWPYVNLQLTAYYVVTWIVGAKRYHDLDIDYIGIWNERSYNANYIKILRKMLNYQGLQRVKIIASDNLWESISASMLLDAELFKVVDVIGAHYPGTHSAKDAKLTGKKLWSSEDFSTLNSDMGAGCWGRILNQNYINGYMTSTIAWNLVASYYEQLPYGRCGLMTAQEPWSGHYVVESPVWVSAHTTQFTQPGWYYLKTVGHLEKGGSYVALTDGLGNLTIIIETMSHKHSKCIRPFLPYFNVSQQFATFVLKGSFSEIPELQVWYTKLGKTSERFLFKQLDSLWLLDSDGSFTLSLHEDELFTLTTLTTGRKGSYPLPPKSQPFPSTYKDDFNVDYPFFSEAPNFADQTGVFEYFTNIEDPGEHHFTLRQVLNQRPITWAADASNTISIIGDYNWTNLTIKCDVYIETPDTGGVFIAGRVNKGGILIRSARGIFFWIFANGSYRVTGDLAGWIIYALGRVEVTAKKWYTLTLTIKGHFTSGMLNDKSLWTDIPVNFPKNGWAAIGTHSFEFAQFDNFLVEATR

activation, inactive:
COc1cc(OC)c(NS(=O)(=O)c2c(C)nc3sc(C)cn3c2=O)cc1Cl -4.4%, CCOc1cccc(C(=O)Nc2ccc3oc(-c4ccncc4)nc3c2)c1 -9.21%, Cc1cc(C)c(NC(=O)CSc2nc3nccnc3c(=O)n2CCc2c[nH]c3ccccc23)c(C)c1 -6.62%, COc1ccc(NC(=O)Cn2c(=O)n(CCCCCC(=O)NCc3ccc4c(c3)OCO4)c(=O)c3sccc32)cc1Cl -22.9%, O=C(Nc1cccc(C(=O)OCc2cc(=O)n3c4c(sc3n2)CCCC4)c1)c1ccc(Cl)cc1 -8.09%, CCCSc1oc(-c2cccs2)nc1S(=O)(=O)c1ccc(C)cc1 -9.33%, Cc1ccc(Cn2c(C)c3cnn(CC(=O)O)c(=O)c3c2C)cc1 -4.81%, O=C(Cn1cc(SCc2ccc(F)cc2)c2ccccc21)N1CCCCC1 -8.48%, COc1ccc(C)cc1NC(=O)c1sc2nc(-c3ccc(F)cc3)cn2c1C -6.05%, CCN(CC)C(=O)c1sc2c(c1C)c(=O)n(Cc1ccccc1)c(=O)n2Cc1cc(C)ccc1C -10.1%, O=C(NCc1ccccc1)c1cnc2sc(N3CCCC3)nn2c1=O -9.68%, CCOc1cc(S(=O)(=O)NCCc2c(C)[nH]c3ccc(C)cc23)ccc1F 0.395%, COc1ccc2c(c1)c(CC(=O)Nc1cc(C)cc(C)c1)c(C)n2C(=O)c1ccc(Cl)cc1 -10.8%, O=C(Nc1ccccc1C(F)(F)F)c1cc2nc(-c3ccccc3)cc(-c3ccccc3)n2n1 -8.59%, CCc1ccc2c(c1)NC(c1ccc(F)cc1)=NC(c1ccncc1)=N2 -0.85%, COc1ccccc1NC(=O)c1sc(-c2ccc(Cl)cc2)cc1N -31.9%, O=C(CCCn1ncn2c(cc3occc32)c1=O)NCc1ccccc1F -5.26%, Cc1cc(C)c2oc(C(=O)Nc3ccc(S(=O)(=O)Nc4ncccn4)cc3)cc(=O)c2c1 -16.1%, Cc1cc2c(cc1S(=O)(=O)C(C)CC(=O)NC1CCC(C)CC1)OCC(=O)N2 (centres undefined) -1.98%, CCc1ccc(NC(=O)c2sc(-n3nc(C)c(Cc4ccc5c(c4)OCO5)c3C)nc2C)cc1 0.0603%, Cc1ccc2oc(C(=O)Nc3ccc(S(=O)(=O)N4CCCCCC4)cc3)cc(=O)c2c1 -12.5%, CC(C)Cn1cnc2c(N)nc3ccccc3c21 -16.3% [at 23.8 µM], COc1ccccc1NC(=O)Cn1nc2c3cc(F)ccc3n(Cc3cccc(C)c3)cc-2c1=O -13%, CCOc1ccccc1NC(=O)Cn1c(=O)n(-c2ccc(C)c(C)c2)c(=O)c2oc3ccccc3c21 -2.69%, O=C(Oc1ccccc1F)c1nc(SCc2ccccc2F)ncc1Cl -11.9%, CC(=O)N1CCCc2cc(S(=O)(=O)NCc3ccccc3Cl)ccc21 -8.5%, CCN1CCC(N(Cc2ccc3c(c2)OCO3)C(=O)Nc2cccc(C)c2C)CC1 -8.38%, Cc1ccc2nc(-c3cccc(NC(=O)CSc4ccc(Cl)cc4)c3)oc2c1 -16.2%, COc1ccc(Nc2ncc3c(n2)CCN(Cc2cccc(F)c2F)C3)c(OC)c1 -17.3%, Cc1ccc(S(=O)(=O)c2nnn3c2nc(N2CCCC(C)C2)c2cc(Cl)ccc23)cc1C (centres undefined) -5.99%, CCN(C(=O)Cn1cc(S(=O)(=O)N2CCN(c3ccccc3F)CC2)c2ccccc2c1=O)c1ccc(C)c(C)c1 -2.11%, Cc1ccc(NC(=O)Cn2c(=O)n(-c3ccccc3)c(=O)c3ccc(C(=O)NCc4ccc5c(c4)OCO5)cc32)cc1 -15.3%, Oc1c(C(c2ccccc2Cl)N2CCC(O)CC2)sc2nc(-c3ccco3)nn12 (centres undefined) -4.04%, CCN(Cc1ccccc1)C(=O)C1CCC(CNS(=O)(=O)c2ccc3c(c2)CCCC(=O)N3)CC1 (centres undefined) -8.33%, Cc1ccc(C)c(NC(=O)c2cc(S(=O)(=O)N3CCN(c4cccc(Cl)c4)CC3)ccc2F)c1 -14.1%, CCc1ccc(Nc2nc3c(S(=O)(=O)c4ccc(C)cc4)nnn3c3ccsc23)cc1 -8.65%, Cc1ccc(NC(=O)CSc2nc3ccccc3nc2Cc2ccccc2)c(Cl)c1 -13%, Cc1ccc(-n2ncc(C(=O)NCc3ccccn3)c2C2CCN(C(=O)OC(C)(C)C)CC2)cc1C 7.15%, COc1cccc(CNC(=O)C2CCN(Cc3cc4ccccc4n3Cc3ccccc3)CC2)c1OC -13.5%, Cc1ccc(Cl)cc1NC(=O)c1nnn(Cc2ccccc2)c1N -8.41%, CCOc1ccc(S(=O)(=O)NCc2ccc3c(c2)CCN3C(=O)c2ccc(C)cc2)cc1 -9.8%, CCn1ccc2cc(S(=O)(=O)N3CCC(C(=O)NCC(C)c4ccccc4)CC3)ccc21 (centres undefined) -9.34%, Cc1ccc(NCc2cc3cc4c(cc3n(CC(=O)Nc3ccc(F)cc3F)c2=O)OCCO4)cc1 1.57%, Cc1nnc2c3ccccc3nc(Nc3ccccc3C(=O)O)n12 -14.3%, COc1ccc(S(=O)(=O)Nc2cc(-c3cn4ccc(C)cc4n3)ccc2C)cc1OC -19%, O=C(COc1ccc(Cl)cc1)Nc1ccc2nc(SCC(=O)N3CCOCC3)sc2c1 -13.4%, O=C(Nc1ccc(C(F)(F)F)cc1)c1cc(S(=O)(=O)N2CCCc3ccccc32)ccc1F -8.68%, Cc1ccc(CN2c3ccccc3-c3nc(SCC(=O)NCCc4ccccc4)ncc3S2(=O)=O)cc1 0.654%, CCOC(=O)c1cccc(NC(=O)CSc2cc(=O)n(C)c3ccccc23)c1 -33.1%, CCN(CC)CCNC(=O)c1ccc(-c2nc(CN3CCc4ccccc43)c(C)o2)cc1 -15.4%, Cc1nnsc1C(=O)Oc1ccc(C#N)cc1 -10.9%, O=C(/C=C/c1ccccc1)Nc1nc2n(n1)C(c1ccc(Cl)cc1)C=C(c1ccccc1)N2 (centres undefined) -11.1%, Clc1ccc(CN2CCc3nc(N4CCN(c5ccccn5)CC4)ncc3C2)cc1 -10.1%, O=C(CN1C(=O)C2(SCC(=O)N2c2cccc(F)c2)c2ccccc21)NCc1ccccc1Cl (centres undefined) -11%, CCOC(=O)c1ccc(Oc2nc(C)nc3c2oc2ccccc23)cc1 -11.1%, CC(C)CC(=O)NCC(c1ccc2c(c1)OCO2)N1CCN(c2ccc(F)cc2)CC1 (centres undefined) 5.36%, CC(C)(C)c1ccc(S(=O)(=O)c2cnc(SCC(=O)Nc3ccc4c(c3)OCCO4)[nH]c2=O)cc1 -21.1%, CCc1nc2ccccc2n1CCCCOc1cccc(C)c1 -19.6%, CCOC(=O)c1cc(-c2ccccc2)n(CCCC(=O)Nc2cccc(C)c2)c1C -0.497%, COc1cc(C2c3c(oc4ccc(F)cc4c3=O)C(=O)N2c2nc(C)c(C)s2)cc(OC)c1OC (centres undefined) -4.91%, O=C(CCS(=O)(=O)c1cc(Br)cc2c1N(C(=O)C1CC1)CC2)N1CCN(c2ccc(F)cc2)CC1 -16.3%, Cc1ccc(N(C)C(=O)Cn2cnc3onc(-c4ccc(F)cc4)c3c2=O)cc1C -21.9%, COc1ccc(C)cc1NC(=O)COCc1cc(-c2cccs2)on1 -18.8%, CCOc1ccc(NC(=O)CSc2nc3c(c(=O)[nH]2)CCCC3)cc1 -19.8%, Cc1ccc2ncc(C(=O)NCCc3ccc(S(N)(=O)=O)cc3)c(=O)n2c1 -28.6%, COc1ccc(CCNC(=O)CCCn2c(=O)c3ccccc3n(Cc3ccc(C)cc3)c2=O)cc1OC -5.19%, COc1cc(NC(=O)CSc2nc3ccccc3nc2Cc2ccccc2OC)cc(OC)c1 -2.56%, COc1cccc(CNC(=O)CNS(=O)(=O)c2ccc3nc(C)sc3c2)c1 -4.77%, O=C(c1ccc(Cl)cc1)N(Cc1ccco1)Cc1ccco1 -9.01%, CCOc1ccccc1Nc1sc(C(=O)c2ccccc2)c(N)c1C(=O)NCCc1ccccc1 -12.4%, COc1ccccc1OCCn1c(COc2cc(C)ccc2C)nc2ccccc21 -14.8%, Cc1nn2c(C)c(C(=O)N3CCN(c4ccccc4)CC3)cnc2c1-c1ccccc1 -3.55%, Cc1ccc(CCNC(=O)c2cc3c(=O)oc4ccccc4c3s2)cc1 -27.8%, CCN(CC)S(=O)(=O)c1nnc(NC(=O)c2ccccc2Cl)s1 -18.8%, CC(C)CNc1nc(NC(C)(C)C)nc(Oc2ccc(=O)n(-c3ccccc3)n2)n1 -10.6%, CCC(=O)Nc1ccc(C)cc1-c1nc2ccccc2n(CC(=O)Nc2ccccc2Cl)c1=O 4.99%, COc1cc(OC)cc(C(=O)Nc2ccc3oc(-c4ccccc4C)nc3c2)c1 -11.2%, COc1ccc(NC(=O)Cn2c(=O)n(CC3CCCO3)c(=O)c3ccccc32)c(OC)c1 (centres undefined) -3.16%, CCN1CCN(CCCNC(=O)c2cc3c(=O)n(CC)c4ccccc4c3s2)CC1 -0.332%, Cc1c(CNCc2ccc(OC(C)C)cc2)c(C(=O)O)c(C)n1Cc1ccc(Cl)cc1 -7.7%, COc1ccc(N(C(=O)c2ccccc2F)S(=O)(=O)c2ccc3c(c2)n(C)c(=O)n3C)cc1 2.86%, CC(=O)N1CCOc2cc(S(=O)(=O)NCc3ccc(C)cc3)c(C)cc21 -4.33%, CCOc1ccc(CNC(=O)c2ccc3c(c2)nc2n3CCOC2)cc1 3.45%, COc1ccc(-c2cc(C(F)(F)F)nc(SCC(=O)N(C)Cc3ccccc3)n2)cc1OC -5.9%, COc1ccc2c(c1)c1c(c(=O)n(CCc3ccccc3)c(=O)n1Cc1ccccc1)n2C 0.94%, Cc1ccc(NC(=O)c2oc3ccc(S(=O)(=O)N4CCCCC4)cc3c2C)cc1C -11.8%, O=C(c1cc2ccc3cccnc3c2[nH]1)N1CCN(c2cccc(C(F)(F)F)c2)CC1 -12.9%, Cc1ccc(C)c2sc(NC(=O)c3ccc(S(=O)(=O)N4CCCC4)cc3)nc12 -6.24%, COc1ccc(CNC(=O)c2c(Nc3ccc(OC)cc3OC)sc(C(=O)c3ccc(Cl)cc3)c2N)cc1 -2.89%, CCOC(=O)CSc1nc2sc3c(c2c(=O)n1Cc1ccccc1)CCC(C(C)(C)C)C3 (centres undefined) -11.1%, COc1cc(O)ccc1C1CC(=O)Nc2c1c(=O)nc(SCc1ccccc1C)n2C (centres undefined) -4.7%, CCC(C)(C)NS(=O)(=O)c1cc(-c2cc(C)no2)ccc1C -21%, CCN1c2ccccc2-c2nc(SCC(=O)Nc3cccc(C(F)(F)F)c3)ncc2S1(=O)=O -15.7%, COc1ccc2nc(S(=O)Cc3ncc(C)c(OC)c3C)[nH]c2c1 (centres undefined) -12.7%
